Experimental data: PubChem BioAssay AID1508624 (National Center for Advancing Translational Sciences (NCATS), 2021)
Among all 48,000 compounds or so, about 120 (0.25%) were called active. Roughly 4% stayed inconclusive and do not appear here. Calls follow the shape of the dose curve; as a rule, active = well fitted activation curve with a large enough effect; inconclusive = small, poorly fitted or top-dose-only effect, or another doubt; inactive = no such curve, though single readings can be large or run the other way. The list shows a part of the results.

Test: Primary qHTS for Identification of Small Molecule Activators of Huntingtin-Antisense Promoter Activity; also: nearly all actives have a fitted effect of over 55% in size
Conditions: HEK293 HTT-AS promoter firefly luciferase reporter, 24 h; series mostly up to 57.5 µM; activity change, positive = activation: at the top concentration
In short: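 Luminescence was read after Dual-Glo reagent and a 10 min room-temperature incubation. Values were normalized to vehicle (0% activity) and zero RLU (-100% activity). Reporter HEK293 cells had been exposed to compounds (up to 57.5 uM final) for 24 h.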

Activity change, positive = activation, inactive:
CC(=O)c1ccc(NC(=O)CSc2cn(CC(=O)N(C(C)C)C(C)C)c3ccccc23)cc1 -22.6%, CCCCN(CC)C(=O)CCNS(=O)(=O)c1ccc2c(c1)c(=O)n(C)c(=O)n2C -7.07%, CCS(=O)(=O)N1CCc2cc(C(=O)Nc3cccc(C(C)=O)c3)ccc21 0.19%, Cc1cccc(Nc2ccncc2S(=O)(=O)NC(=O)NC(C)C)c1, CC(C)CCn1c(Oc2ccccc2F)nc2c1c(=O)n(C)c(=O)n2C -21.3%, CCCOc1cccc(C2c3c(-c4ccccc4O)n[nH]c3C(=O)N2Cc2ccco2)c1 (stereo not given) -32.4%, COc1ccc(C(CNC(=O)c2oc3cc(C)c(Cl)cc3c2C)N2CCCCC2)cc1 (stereo not given) 18.2%, COCCNC(=O)CCc1c(C)n(C)c2cc(-c3cc(OC)c(OC)c(OC)c3)nn2c1=O -5.62%, CC1CCN(S(=O)(=O)c2ccc3nc(NCc4ccccc4)ccc3c2)CC1 -37%, O=C(Cn1nc(-c2ccc(Cl)cc2)c2ccccc2c1=O)Nc1cccc(C(F)(F)F)c1 -31.1%, Cn1c(=O)c(=O)n(C)c2cc(C(=O)NCc3ccccc3Cl)ccc21 -12.7%, COC(=O)c1scc(-c2ccc(C)cc2)c1S(=O)(=O)N1CCN(c2ccc(C)cc2C)CC1 -29.6%, COc1cccc(Nc2nc3ccccc3c3nncn23)c1 -7.3%, Cn1c(SCc2cc(=O)c3cc(Cl)ccc3[nH]2)nnc1-c1ccccc1 -30.6%, CCCNC(=O)CCCN1C(=O)CCn2nc(-c3cccn3C)cc21 -2.71%, CCc1ccc2oc(-c3ccc(NC(=O)c4cc5ccccc5o4)cc3)nc2c1 9% [at 11.5 µM, percent change from vehicle, -100% = no light], COCCCNC(=O)c1sc2nc(C)c(C(=O)Nc3ccc(C)cc3C)c(-c3ccccc3Cl)c2c1N -0.784%, COc1ccc(C(=O)NCc2ccc3c(c2)CCN3C(=O)c2ccccc2)cc1 14.2%, COc1ccc(NS(=O)(=O)c2ccc(-c3cnc(C4CC4)o3)cc2)cc1Cl -37.1%, O=C(CCSCc1cnn(-c2ccccc2)c1-n1cccc1)NCc1ccccc1Cl -15.9%, Cc1cc(C)cc(Nc2cc(C(=O)NCCCN(C)C3CCCCC3)c3ccccc3n2)c1 -28.5%, CC(=O)N[C@H]1[C@@H]([C@H](O)[C@H](O)CO)OC(C(=O)O)=C[C@@H]1N=C(N)N -9.17%, Cc1ccc(Cl)cc1N1CCN(C(=O)c2ccc(CS(=O)c3ccccc3)o2)CC1 (stereo not given) -41.7%, COCCNC(=O)c1nn(-c2ccc(C)cc2)c(=O)n(C)c1=O -10.6%, CCN(CC)CCCNC(=O)c1cn(CC(C)C)c(=O)c2c1c1ccccc1n2C -10.9%
